# Results reported in the RNAGym collection of RNA variant scans (doi:10.1073/pnas.2313332121).
# Variants at the background level are over-represented here.
# B1: TPR 5TU (parent)
# chain: GGAUCUUCUCGAUCUAACAAAAAAGACAAAUCUGCCACAAAGCUUGAGAGCAUCUUCGGAUGCAGAGGCGGCAGCCUUCGGUGGCGCGAUAGCGCCAACGUUCUCAACUAUGACACGCAAAACGCGUGCUCCGUUGAAUGGAGUUUAUCAUG
# Variants of: B1
# Assay: polymerase ribozyme fitness, log enrichment relative to wild type (log ratio); higher = more active; in vitro selection for triplet polymerase activity
# Outline: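 In triplicate, a single round of in vitro selection was run on each mutant library, PCR-built and transcribed, covering one subunit of a heterodimeric triplet polymerase ribozyme. Frozen incubation at −7 °C followed annealing with a biotinylated primer, partner subunit and triplets, and extended constructs were then gel-excised, streptavidin-captured and taken through RT-PCR. Fitness is the logarithm of genotype enrichment over wild-type enrichment, from inverse-variance-weighted replicate averages of Illumina-sequenced inputs and outputs. […] only genotypes with ≥10 input reads and ≥1 read per output were kept.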
row,Variant,polymerase ribozyme fitness (log ratio)
1,C14G A66G C76A G100C G141A U144C,≤ -4.2
2,C14G A66G G88A G117U C118A U145A,≤ -4.2
3,C14G A66U C87G A115U,≤ -4.2
4,C14G A89G G117C G133U,≤ -4.2
5,C14G A107G A137U U148C,≤ -4.2
6,C14G A110G G117C,≤ -4.2
7,C14G C18A A20U G25C C36U A41G A49G G83U C95G C96A C116A,≤ -4.2
8,C14G C18A A28C A39U A52U U55A G58C U61A C95A,≤ -4.2
9,C14G C18G A19C C54A A60G C85G C125U G141C C149A,≤ -4.2
10,C14G C18G G46A A52G C76G C87U U104G G126U,≤ -4.2
11,C14G C18G G50A G92A,≤ -4.2
12,C14G C18G U53A C93U U109G,≤ -4.2
13,C14G C18U A22C A40C U53A C75A U77A G94C G117U A119G C149G,≤ -4.2
14,C14G C18U C32A U56G U61G G124A,≤ -4.2
15,C14G C18U C75U U77A C93G C99U C129G,≤ -4.2
16,C14G C18U G42C U44C U82G C85A,≤ -4.2
17,C14G C27A A37G G50C G84A C99G C125G U134A G143C U146A,≤ -4.2
18,C14G C27A A37U C54U G67A G94U C105G,≤ -4.2
19,C14G C27A U33G C38G C96G A115C C116A,≤ -4.2
20,C14G C27G G58A G86U U127C,-4.16
21,C14G C27G G59U G67C G88A A89U U101G U139A,≤ -4.2

row,Variant,polymerase ribozyme fitness (log ratio)
1,C14G C35G U55A G88C C108U U146G,≤ -4.2
2,C14G C35U A49C G92A,≤ -4.2
3,C14G C35U C54G G133C,≤ -4.2
4,C14G C35U G58U C93A,≤ -4.2
5,C14G C36G A52G G133C U146C U148C,≤ -4.2
6,C14G C36U G50C C96G C114U,≤ -4.2
7,C14G C38A G68C G71A C95U,≤ -4.2
8,C14G C38G C69U C85U C87U G126A,≤ -4.2
9,C14G C38U C43U U55G G94U U102C,≤ -4.2
10,C14G C38U C95G A106C,-4.14
11,C14G C51G G68A C95U U127C,≤ -4.2
12,C14G C54A C63A U111C A137U G141C,≤ -4.2
13,C14G C54A U56A C95G C99U,≤ -4.2
14,C14G C57A,-1.52
15,C14G C57G C72U A147G C149G,≤ -4.2
16,C14G C57U,-2.06
17,C14G C57U C75U C93U C131G,≤ -4.2
18,C14G C75A G83A C95A A110U A115G,≤ -4.2
19,C14G C85G C103A,≤ -4.2
20,C14G C85G G136U,≤ -4.2
21,C14G C87A A122C U144A,≤ -4.2

row,Variant,polymerase ribozyme fitness (log ratio)
1,C14G C87A G94A U104A,≤ -4.2
2,C14G C93U U135A,≤ -4.2
3,C14G G25A U55A U127C,≤ -4.2
4,C14G G25C,≤ -4.2
5,C14G G25C A49C G62C A97G C105A G128A,≤ -4.2
6,C14G G25C U44G C57U A91G G94U C131A U134G,≤ -4.2
7,C14G G25U C79U U134G U146G C149U,≤ -4.2
8,C14G G34C A47C C51U G83U G88U A137C,≤ -4.2
9,C14G G42U G46C G92C A119U G128A,≤ -4.2
10,C14G G46A G50C G58U C99G A106U G140A,≤ -4.2
11,C14G G46C G59A G71A C96U,≤ -4.2
12,C14G G46U G48A A73U U77C,≤ -4.2
13,C14G G48A G58C,≤ -4.2
14,C14G G48C C75U G81A G84U A97U G141U A150U,≤ -4.2
15,C14G G65A C85U U102G A113G G126A G141U,≤ -4.2
16,C14G G65U G133C G141U,≤ -4.2
17,C14G G70A G86A U90G C93G A110U C114U U134A,≤ -4.2
18,C14G G74C U77G A142G,≤ -4.2
19,C14G G80C C131G,≤ -4.2
20,C14G G81A C87U A106C G140U,≤ -4.2
21,C14G G81A G86C C116G G124C,≤ -4.2

row,Variant,polymerase ribozyme fitness (log ratio)
1,C14G G83A G117U U127G,≤ -4.2
2,C14G G88A C116U,≤ -4.2
3,C14G G88A U127C,≤ -4.2
4,C14G G88U U102A,≤ -4.2
5,C14G G92C C105G,≤ -4.2
6,C14G G94C,-2.23
7,C14G G133C,≤ -4.2
8,C14G G141A,-1.87
9,C14G U15A G68C G83A U111C,≤ -4.2
10,C14G U15C C18U A39U A49C G80C A110C,≤ -4.2
11,C14G U15G A20G A26U C72U G140A,≤ -4.2
12,C14G U15G A24G G58C C87G C108A C114U G136A,≤ -4.2
13,C14G U15G G46A A49G G84U A106G,≤ -4.2
14,C14G U31A A40U U90G G92A A107G G112A G133U G141A,≤ -4.2
15,C14G U33A A39G C131A,≤ -4.2
16,C14G U33A G48A U82C C85G C149G,≤ -4.2
17,C14G U44A G59U C75U A91G G133C,≤ -4.2
18,C14G U44G C79G C85A C87A U146G,≤ -4.2
19,C14G U45A G46C G50C G80U C85U A113C,≤ -4.2
20,C14G U45C A49C G74U G83C,≤ -4.2
